Source: PubChem BioAssay (Tox21)
Where “and” joins values, the source holds several entries; their conditions need not be identical. Equal values may be shown once. The inconclusive results got no clear call from the source; some entries with a clear call stand among them for comparison. Potencies beside an inconclusive call are fits to weak or partial responses and may not hold up. More than one record can exist for a structure, and the calls need not agree. Calls of active or inactive are those of the source. Calls follow the shape of the dose curve; as a rule, active = well fitted activation curve with a large enough effect in the repeat runs; inconclusive = weak or mixed curves; inactive = flat fitted curve, though single readings scatter.

Test: A CellTox Green Cytotoxicity Assay to monitor cytotoxicity in HepG2 cells - 32 hour (AID 1224883); also: nearly all actives have a fitted effect of over 50% in size
Details: CellTox Green fluorescence; series mostly up to 76.8 µM
Outline: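 Cytotoxicity was tracked as dead-cell DNA fluorescence in HepG2 cells treated with test compounds at 37 C; each time-point value comes from one kinetic series spanning 0, 8, 16, 24, 32 and 40 h.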
Potency is read from the fitted curve at half-maximal effect; tags tell the direction and shape of the fitted curve.

Row | SMILES | Potency
1 | Oc1c(Cl)cc(Cl)cc1Sc1cc(Cl)cc(Cl)c1O | inconclusive: 27.6 µM [activator, partial curve] and active: 44.4 µM and active: 43.6 µM
2 | CN(C)[C@@H](CCOc1cccc2ccccc12)c1ccccc1 | inconclusive: 26.8 µM [activator, single point]
3 | Cc1ccc2c(n1)Oc1ccc(C(C)C(=O)OCC(=O)N(C)C)cc1C2 (stereo unspecified) | inactive and inconclusive: 15.1 µM [activator, single point]
4 | CCCC(C(=O)OCCN(CC)CC)(c1ccccc1)c1ccccc1 | inconclusive: 26.8 µM [activator, single point]
5 | CCCCCCCCCCCCCCCCCCOS(=O)(=O)O | inconclusive: 61.6 µM [activator, single point]
6 | CCN(CC)C(=O)c1cc(S(=O)(=O)Cc2ccccc2)c(N2CCC(c3ccccc3)CC2)cc1N(CC)CCN(C)C | active: 15.3 µM
7 | CCN(CC)CCSC(=O)C(c1ccccc1)c1ccccc1 | inconclusive: 26.8 µM [activator, partial curve, poor fit]
8 | Nc1nc(=S)c2[nH]cnc2[nH]1 | inactive
9 | COc1cc(C(C)(C)C)c(O)c(C(C)(C)C)c1 | inconclusive: 54.9 µM [activator, single point]
10 | CCCCCCCC/C=C\CCCCCCCC(N)=O | inconclusive: 30.9 µM [activator, partial curve]
11 | O=C(Cl)c1cc(C(=O)Cl)cc(C(=O)Cl)c1 | inconclusive: 54.9 µM [activator, single point]
12 | c1ccc2sc(SSN3CCOCC3)nc2c1 | active: 54.8 µM and active: 54.9 µM

Test: A CellTox Green Cytotoxicity Assay to monitor cytotoxicity in HEK293 cells - 8 hour (AID 1224884); also: nearly all actives have a fitted effect of over 35% in size
Details: CellTox Green fluorescence; series mostly up to 76.8 µM
Outline: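 Real-time, in one plate: 600 HEK293 cells/well with dead-cell DNA dye, pinned compound after 5 h, 37 C incubation over 40 h; viable cells give no appreciable fluorescence.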

Row | SMILES | Potency
13 | OCc1c[nH]c2ccccc12 | inconclusive: 54.9 µM [activator, single point]
14 | COc1ccc(C(=O)CC(=O)c2ccc(C(C)(C)C)cc2)cc1 | inconclusive: 26.8 µM [activator, single point]
15 | CC/C=C\CCOC(=O)c1ccccc1 | inactive
16 | CNCCCN1c2ccccc2CCc2ccccc21 | inactive
17 | CN1CCN(C2Cc3ccccc3Sc3ccc(Cl)cc32)CC1 (stereo unspecified) | active: 19 µM
18 | CC(COc1ccccc1)N(CCCl)Cc1ccccc1 (stereo unspecified) | inconclusive: 61.7 µM [activator, single point]
19 | Cc1cccc2c1cc1ccc3cccc4ccc2c1c34 | inconclusive: 56.2 µM [activator, single point]
20 | CCCN(CCc1cccs1)[C@H]1CCc2c(O)cccc2C1 | inactive
21 | O=C1OC2(c3ccccc31)c1cc(I)c(O)c(I)c1Oc1c2cc(I)c(O)c1I | active: 13.3 µM [middle of 4 runs]
22 | CC(C)C(C)(C)C(C)(C)C(C)(C)S | inconclusive: 43.6 µM [activator, partial curve, poor fit]
23 | CCCCCCCCCCCCCCCCCCOS(=O)(=O)O | inconclusive: 54.9 µM [activator, single point]
24 | CCN(CC)C(=O)c1cc(S(=O)(=O)Cc2ccccc2)c(N2CCC(c3ccccc3)CC2)cc1N(CC)CCN(C)C | inconclusive: 21.6 µM [activator, single point]
25 | C[C@H](CCC(=O)O)[C@H]1CC[C@H]2[C@@H]3CC[C@@H]4C[C@H](O)CC[C@]4(C)[C@H]3C[C@H](O)[C@]12C | inconclusive: 61.9 µM [activator, single point]
26 | CCCCC(CC)COP(=O)(O)OCC(CC)CCCC (stereo unspecified) | inconclusive: 49 µM [activator, single point]
27 | O=C(O)c1cccc(Cl)n1 | inconclusive: 49 µM [activator, partial curve]
28 | CC1(C)CCC[C@]2(C)[C@H]3CCO[C@]3(C)CC[C@@H]12 | inconclusive: 17.4 µM [activator, partial curve, poor fit]
29 | Cc1ccc(O)c(O)c1 | inconclusive: 59.9 µM [activator, single point]
30 | CCCCCCCCCCCCCCCC(=O)OC[C@H](O)[C@H]1OC(=O)C(O)=C1O | inconclusive: 61.6 µM [activator, single point]
31 | C=C[C@](C)(O)CC[C@@H]1[C@@]2(C)CCCC(C)(C)[C@@H]2CC[C@@]1(C)O | inconclusive: 54.9 µM [activator, single point]
